Assay results from the RNAGym collection of RNA variant scans (doi:10.1073/pnas.2313332121).
Variants at the background level are over-represented here.

B1: TPR 5TU (parent)
chain: GGAUCUUCUCGAUCUAACAAAAAAGACAAAUCUGCCACAAAGCUUGAGAGCAUCUUCGGAUGCAGAGGCGGCAGCCUUCGGUGGCGCGAUAGCGCCAACGUUCUCAACUAUGACACGCAAAACGCGUGCUCCGUUGAAUGGAGUUUAUCAUG

Variants of: B1
Assay: polymerase ribozyme fitness, log enrichment relative to wild type (log ratio); higher = more active; in vitro selection for triplet polymerase activity
Procedure, shortened: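 Fitness is a logarithmic measure of how a genotype enriched relative to the wild type, with replicate averages weighted by inverse variance. The logarithm uses base 2, and enrichment came from Illumina sequencing of input and output libraries. Those libraries were PCR-built, transcribed mutants of each subunit of a heterodimeric triplet polymerase ribozyme, passed through one triplicate in vitro selection round that included frozen incubation at −7 °C, gel excision of extended constructs and streptavidin-bead capture. Genotypes were kept only if they had ≥10 input reads and ≥1 read per output.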

Row | Variant | polymerase ribozyme fitness (log ratio)
1 | GGAUCUUCUCGAUCUAACAAAAAAGACAAAUCUGCCACAAAGCUUGAGAGCAUCAUCGGAUGCAGAGGCGGCAGCCUUCGGUGGCGCGAUAACGCCAACGUUCUCAACUAUGACACGCAAAACGCGUGCUCCGUUGAAUGGAGUUUAUCAUG | -2.69
2 | GGAUCUUCUCGAUCUAACAAAAAAGACAAAUCUGCCACAAAGCUUGAGAGCAUCAUCGGAUGCAGAGGCGGCAGCCUUCGGUGGCGCGAUAGCCCCAACGUUGUCAACUAUGACACGCAAAACGCGUGCUCCGUUGAAUGGAGUUUAUCAUG | ≤ -4.2
3 | GGAUCUUCUCGAUCUAACAAAAAAGACAAAUCUGCCACAAAGCUUGAGAGCAUCAUCGGAUGCAGAGGCGGCAGCCUUCGGUGUCGCGAUAGCGCCAACGUUCUCAACUAUGCCACGCAAAACGCGUGCUCCGUUGAAUGGAGUUUAUCAUG | -3.62
4 | GGAUCUUCUCGAUCUAACAAAAAAGACAAAUCUGCCACAAAGCUUGAGAGCAUCAUCGGAUGCAGAGCCGGCAGCCUGCGGUGGCGCGAUAGCGCCAACGUUCUCAAGUAUGACACGCAAAACGCGUGCUCCGUUGAAAGGAGUUUAUCAUG | ≤ -4.2
5 | GGAUCUUCUCGAUCUAACAAAAAAGACAAAUCUGCCACAAAGCUUGAGAGCAUCAUCGGAUGCAGAGCCGGCAGCCUUCGGUGGCGCGAUAGCGCCAAAGUUCUCAACUAUGACACGCAAAACGCGUGCUCCGUUGAAUGGAGUUUAUCUUG | ≤ -4.2
6 | GGAUCUUCUCGAUCUAACAAAAAAGACAAAUCUGCCACAAAGCUUGAGAGCAUCAUCGGAUGCAGAGGCGGCAGCCUUCGGUGACGCGAUAGCGCCAACGUUCUCAACUAUGACACGCAAAACGCGUGCUCCGUUGAAUGGAGUUUAUCAUG | -1.01
7 | GGAUCUUCUCGAUCUAACAAAAAAGACAAAUCUGCCACAAAGCUUGAGAGCAUCAUCGGAUGCAGAGGCGACAGCCUUCGCUGGCGCGAUAGCGGCAACGUUCUCAACUAUGACACGCAAAACGUGUGCUCCGUUGAAUGGAGUUUAUCAUG | ≤ -4.2
8 | GGAUCUUCUCGAUCUAACAAAAAAGACAAAUCUGCCACAAAGCUUGAGAGCAUCAUCGGAUGCAGAGGCGUCAGCCUUCGGUGGCGCGAUAGCGCGAACGUUCUCAACUAUGACACGCAAAACGCGUGCUCCGUUGAAUGGACUUUAUUAUG | ≤ -4.2
9 | GGAUCUUCUCGAUCUAACAAAAAAGACAAAUCUGCCACAAAGCUUGAGAGCAUCAUCGGAUGCAGAGGCGGCAGCCUUCGGUAGCGCGAUAGCGCCAACGUUCUCAACUAUGACACGCAAAACACGUGCUCCGUUGAAUGGAGUUUAUCAUG | -0.748
10 | GGAUCUUCUCGAUCUAACAAAAAAGACAAAUCUGCCACAAAGCUUGAGAGCAUCAUCGGAUGCAGAGGCGGCAACCUUCGGUCGCGCGAUCGCGCCAACGUUCUCAACUAUGUCACGCAAAACGCGUGCUCCGUUGAAUGGAGUUUAUCAUG | ≤ -4.2
11 | GGAUCUUCUCGAUCUAACAAAAAAGACAAAUCUGCCACAAAGCUUGAGAGCAUCAUCGGAUGCAGAGGCGGCAGCCUUCGGUGGCGCGAUAUCGCAAACGUUCUCAACUAUGACACGCCACACGCGUGCUCCGUUGAAUGGCGUUUAUCAUG | ≤ -4.2
12 | GGAUCUUCUCGAUCUAACAAAAAAGACAAAUCUGCCACAAAGCUUGAGAGCAUCAUCGGAUGCAGAGGCGGCAGCCUUCGGUGACACGAUAGUGCCAACGUUCUUAACUAUGACACGCAAAACGCGUGCUCCGUUGAAUGGAGUUUAUCAUG | -1.1
13 | GGAUCUUCUCGAUCUAACAAAAAAGACAAAUCUGCCACAAAGCUUGAGAGCAUCAUCGGAUGCAGAGGCGGCAGCCUUCGGUGGCACCUUAGCGCCAACGUUCUCAACUAUGACACGCAAAACGCGUGCUCCGUUGAAUGGAUUUUAUCAUG | ≤ -4.2
14 | GGAUCUUCUCGAUCUAACAAAAAAGACAAAUCUGCCACAAAGCUUGAGAGCAUCAUCGGAUGCAGAGACGGCAGCCAUCGGUGGCGCGAUAGCGCCAACGUUCUCAACUAUGACACGCAAAACGCGUGCUCCGUGGAAUGGAGUUUAUCAUG | ≤ -4.2
15 | GGAUCUUCUCGAUCUAACAAAAAAGACAAAUCUGCCACAAAGCUUGAGAGCAUCAUCGGAUGCAGAGGCGGCAGCCUUCGGUUGCGCGAUAGCGCCAACGUUCUCUACUAUGACACGCAAAACGCGUGCUCCGUUGAAUGGAGUUUAUCAUG | ≤ -4.2
16 | GGAUCUUCUCGAUCUAACAAAAAAGACAAAUCUGCCACAAAGCUUGAGAGCAUCAUCGGAUGCAGAGGCGGCAGCCUUCGAUGGCGCGAUAGUGCCAACGUUCUAAACUAUGACACGUAAAACGCGUGCUCCGUUGAAUGGAGUUUAUCAUG | -3.74
17 | GGAUCUUCUCGAUCUAACAAAAAAGACAAAUCUGCCACAAAGCUUGAGAGCAUCAUCGGAUGCAGAGGCGGCAGCCUUCGCUGGCGCGAUAGCGCCAACGUUCUCAGCUAUGACACGCAAAACGCGUGCUCCGUUGAAUGGAGUUUAUCAUG | ≤ -4.2
18 | GGAUCUUCUCGAUCUAACAAAAAAGACAAAUCUGCCACAAAGCUUGAGAGCAUCAUCGGAUGCAGAGGCGGCAGCCUUCGGUGGCGCGAUAACGCCAACGUUCUCAACUAUGACACGCAAAACGAGUGCUCCGUUGAAUGGAGUUUAUCAUG | -3.46
19 | GGAUCUUCUCGAUCUAACAAAAAAGACAAAUCUGCCACAAAGCUUGAGAGCAUCAUCGGAUGCAGAGGCGGCAGCCUUCGGUGGCGCGAUAACGCCAACGUUCUCAACUUUGACACGCAAAAGGCGUGCUCCGUUGAAUGGAGUUUAUCAUG | ≤ -4.2

Row | Variant | polymerase ribozyme fitness (log ratio)
20 | GGAUCUUCUCGAUCUAACAAAAAAGACAAAUCUGCCACAAAGCUUGAGAGCAUCAUCGGAUGCAGAGGCGACAGCCUUCGGUGGCGCGAUGGCGCCAACGUUCUCAACUAUGACACGCAAAAUGCGUGCUCCGUUCAAUGGAGUUUAUCAUG | ≤ -4.2
21 | GGAUCUUCUCGAUCUAACAAAAAAGACAAAUCUGCCACAAAGCUUGAGAGCAUCAUCGGAUGCAGAGGCCGCAGCCUUCGGUGGCGCGAUAGCACCAACGUUCUCAACUAUGACAGGCAAAACGCGUGCUCCGUUGAAUGGAGUUUAUCAUG | ≤ -4.2
22 | GGAUCUUCUCGAUCUAACAAAAAAGACAAAUCUGCCACAAAGCUUGAGAGCAUCAUCGGAUGCAGAGGCAGCAGCUUUCGGUGGCGCGAUAUCGCCAAUGUUCUCAACUAUGACACGCAAAACGCGUGCUCCGUUGACUAGAGUUUAUCAUG | ≤ -4.2
23 | GGAUCUUCUCGAUCUAACAAAAAAGACAAAUCUGCCACAAAGCUUGAGAGCAUCAUCGGAUGCAGAGGCGGCAGCCUUCGGUGGCGCGAUAUCGCCAACGUUCUCAACUAUGACACGCAAAACUCGUGCUCCGUUGAAUGCAGUUUAUCAUG | -1.14
24 | GGAUCUUCUCGAUCUAACAAAAAAGACAAAUCUGCCACAAAGCUUGAGAGCAUCAUCGGAUGCAGAGGCGGCAGCCUUCGGUGGCGCGAUAGCCCCAACCUUCUCUACUAUGACUCGCAAAACGCGUGCUCCGUUGAAUGGAGUUUAUCAUG | ≤ -4.2
25 | GGAUCUUCUCGAUCUAACAAAAAAGACAAAUCUGCCACAAAGCUUGAGAGCAUCAUCGGAUGCAGAGGCGGCAGCCUUCGAUGGCGCGAUAGCGCCAACGUUCUCAACUAUGACACGCAAAACGCGUGCUCCGUUGAAUGGAGUUUAUCAUG | -1.9
26 | GGAUCUUCUCGAUCUAACAAAAAAGACAAAUCUGCCACAAAGCUUGAGAGCAUCAUCGGAUGCAGAGGCGGCAGCCUUCGGUGGCGCAAUAGCGCCAACGUUCUCAACUAUGACACGCAAAACGUAUGCUCCGUUGAAUGGAGUUUAUCAUG | ≤ -4.2
27 | GGAUCUUCUCGAUCUAACAAAAAAGACAAAUCUGCCACAAAGCUUGAGAGCAUCAUCGGAUGCAGAGCCGGCAGCCUUCGGUGGCGCGAUAGCGCCAACGUUCUCAACUAUGACACGCAAAACGCGUGCUCCGUCGAAUGGAGUUUAUCAUG | ≤ -4.2
28 | GGAUCUUCUCGAUCUAACAAAAAAGACAAAUCUGCCACAAAGCUUGAGAGCAUCAUCGGAUGCAGAGGCGGCAGCCUUCAGUGGAGCGAUAGCGCCAACGUUCUCAACUAUGACACGCAAAACGCGUGCUCCGUUGAAUGGAGUUUAUCAUG | -1.39
29 | GGAUCUUCUCGAUCUAACAAAAAAGACAAAUCUGCCACAAAGCUUGAGAGCAUCAUCGGAUGCAGAGGCGGCAGCCUUCGGUGACGCGAUAGCGCCAACGUUCUCAACUAUGACACGCAAAACGCGUGCUCCGUUGAAUGGAAUUUAUCAUG | -0.776
30 | GGAUCUUCUCGAUCUAACAAAAAAGACAAAUCUGCCACAAAGCUUGAGAGCAUCAUCGGAUGCAGAGGCGGCAGCCUUCGGUAGCGCGAAAACGCCAUCGUUCUCAACUAUGACACGCAAAACGCGUGCUCCGUUGAAUCGAGUUUAUCAUG | ≤ -4.2
31 | GGAUCUUCUCGAUCUAACAAAAAAGACAAAUCUGCCACAAAGCUUGAGAGCAUCAUCGGAUGCAGAGGCGCCAGCCUUCGGUGGCGCGAUAGCGCCAACGUUCUCUACUAUGACACGCAAAACGAGUGCUCCGUUGAAUGGAGUUUAUCAUG | ≤ -4.2
32 | GGAUCUUCUCGAUCUAACAAAAAAGACAAAUCUGCCACAAAGCUUGAGAGCAUCAUCGGAUGCAGAGGCGGCAGCCUUCGAUGGCACGAUAGCGCCAACGUUCUCAACGAUGACACGCAAAACGCGUGCUCCGUUGAAUGGAGUUUAUCGUG | ≤ -4.2
33 | GGAUCUUCUCGAUCUAACAAAAAAGACAAAUCUGCCACAAAGCUUGAGAGCAUCAUCGGAUGCAGAGGCGGCAGCCUUCGCUGGGGCGAUAGCGCCAACGUUCGCGACUAUGACACGCAAAACGCGUGCGCCGUUGAAUGGAGUUUAUCAUG | ≤ -4.2
34 | GGAUCUUCUCGAUCUAACAAAAAAGACAAAUCUGCCACAAAGCUUGAGAGCAUCAUCGGAUGCAGAGGCGGCAGCCUUCGGUAGCGCGAUAGCGCCAACGUUCUCAACUAUGACACGCAAAACGCGUGCUCCGUUGAAUGGAGUUUAUCAUG | -0.501
35 | GGAUCUUCUCGAUCUAACAAAAAAGACAAAUCUGCCACAAAGCUUGAGAGCAUCAUCGGAUGCAGAGGCGGCAGCCUUCGGUGACGCGAUAGCGCCAACGUUCUCAACUAUGACACUCAAAACGCGUGCUCCGUUGAAUGGAGUGUAUCAUG | ≤ -4.2
36 | GGAUCUUCUCGAUCUAACAAAAAAGACAAAUCUGCCACAAAGCUUGAGAGCAUCAUCGGAUGCAGAGGCGGCAGCCUUCGGUGGCUCGAUUGCGCCAACGUUCUCAACUAUGACACGCAAAACGCGUGCUCCUUUGAAUGGAGUUUUUCAUG | ≤ -4.2
37 | GGAUCUUCUCGAUCUAACAAAAAAGACAAAUCUGCCACAAAGCUUGAGAGCAUCAUCGGAUGCAGAGGCGACAGCCUUCAAUGGCCCGAUAGCGCCAAUGUUCUCAACUAUGACAUGCAAAACGCGUGCUCCGUUCAAUGGAGUUUAUCAUG | ≤ -4.2
38 | GGAUCUUCUCGAUCUAACAAAAAAGACAAAUCUGCCACAAAGCUUGAGAGCAUCAUCGGAUGCAGAGGCGGCAAUCUUCGGUGGCGCGAUAGCGCCAACGUUCUCAACUAUGACACGCAAAACGCGUGCUCCGUUGAAUGGAGUUUAUCAUG | ≤ -4.2
